Results on 90 compounds are retold here after article PMC4336329 (PLoS ONE, 2015).

The structures appear in SMILES notation. Among all 310,000 compounds or so, about 14,000 (4.5%) showed an effect of 50% or more. Effects have a minus sign here. The list shows a part of the results.
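Also: peak tail current of the secondary pulse compared with the same well before compound.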

Chain of human ether-à-go-go-related gene (hERG) potassium channel (Q12809 whole entry, looked up): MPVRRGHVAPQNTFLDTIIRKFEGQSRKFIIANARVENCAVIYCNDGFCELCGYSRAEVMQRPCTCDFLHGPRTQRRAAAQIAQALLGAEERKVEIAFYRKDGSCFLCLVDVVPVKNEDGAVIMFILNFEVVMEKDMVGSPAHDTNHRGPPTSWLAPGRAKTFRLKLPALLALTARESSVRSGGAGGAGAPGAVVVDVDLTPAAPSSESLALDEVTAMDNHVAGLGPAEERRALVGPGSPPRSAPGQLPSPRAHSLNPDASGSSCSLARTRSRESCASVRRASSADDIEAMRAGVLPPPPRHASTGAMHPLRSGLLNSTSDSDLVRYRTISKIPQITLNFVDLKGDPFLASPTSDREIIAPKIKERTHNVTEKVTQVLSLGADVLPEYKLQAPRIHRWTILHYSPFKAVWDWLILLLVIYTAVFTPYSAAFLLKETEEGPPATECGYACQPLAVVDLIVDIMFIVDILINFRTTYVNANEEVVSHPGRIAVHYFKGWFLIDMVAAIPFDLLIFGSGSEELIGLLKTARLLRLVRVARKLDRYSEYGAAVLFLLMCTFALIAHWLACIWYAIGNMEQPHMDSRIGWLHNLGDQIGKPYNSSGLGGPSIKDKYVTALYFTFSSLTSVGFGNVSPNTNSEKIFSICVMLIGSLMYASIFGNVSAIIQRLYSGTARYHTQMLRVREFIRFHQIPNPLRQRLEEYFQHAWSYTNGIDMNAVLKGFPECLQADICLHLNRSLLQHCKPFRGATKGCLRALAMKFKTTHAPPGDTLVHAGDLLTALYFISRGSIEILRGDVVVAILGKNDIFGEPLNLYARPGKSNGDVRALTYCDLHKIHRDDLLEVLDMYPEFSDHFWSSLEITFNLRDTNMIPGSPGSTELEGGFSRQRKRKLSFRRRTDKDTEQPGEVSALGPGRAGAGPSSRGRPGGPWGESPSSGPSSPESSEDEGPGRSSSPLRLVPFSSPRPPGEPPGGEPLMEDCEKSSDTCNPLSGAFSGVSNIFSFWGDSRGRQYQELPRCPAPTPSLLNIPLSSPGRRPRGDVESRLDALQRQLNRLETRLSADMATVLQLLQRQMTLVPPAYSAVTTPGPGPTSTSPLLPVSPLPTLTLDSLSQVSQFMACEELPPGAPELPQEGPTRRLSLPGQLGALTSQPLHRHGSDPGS

This assay addresses human ether-à-go-go-related gene (hERG) potassium channel (human, UniProt Q12809). Briefly: primary screen, population patch clamp on CHO cells stably expressing hERG.
For `O=C(OCc1nnc(-c2ccccc2)o1)c1ccc(S(=O)(=O)NCc2ccco2)cc1`, the “hERG current change (%, negative = inhibition) at 10uM” value was -0.314%.

For the compound `c1ccc(-c2ncc3c(ccc4ccccc43)n2)cc1`, the “hERG current change (%, negative = inhibition) at 10uM” value is 2%. As for `O=C(c1cccs1)N1CCN(Cc2ccccc2)CC1`, the “hERG current change (%, negative = inhibition) at 10uM” value is given as -12.2%. On to `O=c1cc(-c2cccc(Br)c2)oc2cccc(O)c12`, for which the “hERG current change (%, negative = inhibition) at 10uM” value is on record as 22.6%. For the compound `C#CCOC(=O)C(NC(=O)c1ccccc1)=C1CCCCC1`, the “hERG current change (%, negative = inhibition) at 10uM” value is listed as -13.7%.

Regarding `O=C(Nc1nc2ccccc2[nH]1)NC1CCCCC1`, the “hERG current change (%, negative = inhibition) at 10uM” value was 16.5%.

Turning to `COc1cccc(NC(=O)Nc2nnc(Cc3ccc(OC)c(OC)c3)s2)c1`, the “hERG current change (%, negative = inhibition) at 10uM” value amounted to 20.6%. `COc1ccc(OC)c(C2C(C(=O)c3ccc(C)o3)=C(O)C(=O)N2CCCN2CCOCC2)c1` (stereo not drawn): the “hERG current change (%, negative = inhibition) at 10uM” value was found to be 1.84%. For `C/C=C(\C)C(=O)O[C@H](c1cc2ccc(=O)oc2cc1OC)[C@@H](O)C(C)(C)O`, the “hERG current change (%, negative = inhibition) at 10uM” value was 4.56%.

Regarding `O=C1NC(=O)N(Cc2ccccc2)C(=O)/C1=C/C=C/c1ccco1`, the “hERG current change (%, negative = inhibition) at 10uM” value was -2.14%. Consider `COCc1cc(=O)n2[nH]c(C)c(-c3ccccc3)c2n1`, for which the “hERG current change (%, negative = inhibition) at 10uM” value came out at 12.3%.

For `Cl.OCCCCNCc1cc(Br)ccc1OCc1ccccc1F`, the “hERG current change (%, negative = inhibition) at 10uM” value is on record as -24.7%.

Turning to `Cn1nccc1C(=O)Nc1nnc(C2CC2)s1`, the “hERG current change (%, negative = inhibition) at 10uM” value is on record as 2.07%. `NNc1ccc(Cl)c(C(=O)O)c1`: the “hERG current change (%, negative = inhibition) at 10uM” value turned out to be 5.85%. As to `CCn1c(SCC(=O)N2CCC(C)CC2)nc2c1c(=O)n(C)c(=O)n2C`, the “hERG current change (%, negative = inhibition) at 10uM” value was -1.22%.

Regarding `COC(=O)c1ccc(OC)c(CSc2nnc(COc3ccccc3)o2)c1`, the “hERG current change (%, negative = inhibition) at 10uM” value is reported as -17.7%.

For the compound `c1ccc(Cc2nnc3n2CCCCC3)cc1`, the “hERG current change (%, negative = inhibition) at 10uM” value is listed as 13.1%. Turning to `Cc1cc(C)c2nc(NNC(=O)c3cc(-c4cccs4)nc4ccccc34)sc2c1`, the “hERG current change (%, negative = inhibition) at 10uM” value was 18.3%.

As to `CCN(CC(=O)Nc1c(F)cccc1F)C(=O)c1ccc(Sc2nncn2C)c([N+](=O)[O-])c1`, the “hERG current change (%, negative = inhibition) at 10uM” value turned out to be 29.7%.

Consider `Cc1ccc(/C=C2\C(=O)NC(=O)N2C)o1`, for which the “hERG current change (%, negative = inhibition) at 10uM” value amounted to 5.55%. As to `CCc1ccc(NC(=O)CSc2nc3cc(C(=O)OC)ccc3c(=O)n2Cc2ccco2)cc1`, the “hERG current change (%, negative = inhibition) at 10uM” value is -3.32%. Next, `COc1ccc(-n2ccn3c(CCC(=O)N4CCN(c5cccc(C)c5C)CC4)nnc3c2=O)cc1`: 4.37%; `Cc1cc(C)c(OCCCCCNCCO)c(C)c1`: -5.77%; `COc1ccc2cc(CN(CC3CCCO3)S(=O)(=O)c3ccccc3Cl)c(=O)[nH]c2c1` (stereo not drawn): -36.7%. Consider `CC(=O)c1cnc2ncnn2c1C`, for which the “hERG current change (%, negative = inhibition) at 10uM” value is recorded as 7.67%.

On to `COc1ccc(OC)c(S(=O)(=O)N2CCN(c3c(C)cccc3C)CC2)c1`, for which the “hERG current change (%, negative = inhibition) at 10uM” value was -2.72%. Regarding `CC(NCC(=O)NCCc1ccc(S(N)(=O)=O)cc1)c1ccc(F)cc1` (stereo not drawn), the “hERG current change (%, negative = inhibition) at 10uM” value came to 13.4%.

For the compound `COc1ccccc1N1CCN(C(=O)CCC(=O)Nc2nnc(CC(C)C)s2)CC1`, the “hERG current change (%, negative = inhibition) at 10uM” value is -14.2%. With `CS(=O)(=O)c1cnc(-c2ccccc2)nc1Oc1ccc(Cl)cc1`, the “hERG current change (%, negative = inhibition) at 10uM” value worked out at 3.63%. For the compound `O=C(Nc1cccc(C(F)(F)F)c1)n1cc(-c2ccccn2)c(N2CCOCC2)n1`, the “hERG current change (%, negative = inhibition) at 10uM” value worked out at 12%. Turning to `Cn1nc(C(C)(C)C)c(NC(=O)c2cccs2)c1C(C)(C)C`, the “hERG current change (%, negative = inhibition) at 10uM” value amounted to 8.76%. Take `O=C(Nc1ccn(C2CC(OC(=O)c3ccccc3)C(CO)O2)c(=O)n1)c1ccccc1` (stereo not drawn): the “hERG current change (%, negative = inhibition) at 10uM” value is given as 5.48%. As for `CCSc1nsc(NC(=O)Nc2cccc(F)c2)n1`, the “hERG current change (%, negative = inhibition) at 10uM” value is 24.1%. Then `COc1ccc(N(CC(=O)NC2CCCC2)C(=O)c2csnn2)cc1`, with -13%; and `COc1ccc(CNC(=O)c2c(C)nc3ccccn23)cc1`, with -12.1%. On to `O=C(OCC(=O)c1ccccc1Br)c1ccncc1`, for which the “hERG current change (%, negative = inhibition) at 10uM” value stood at 14.4%.

On to `Cc1ccccc1C(=O)NC(=S)Nc1ccc(N2CCN(C(=O)c3ccccc3)CC2)cc1`, for which the “hERG current change (%, negative = inhibition) at 10uM” value was determined as 13.8%. For the compound `Cc1cccc(N/N=C/c2c(O)[nH]c(=S)[nH]c2=O)c1`, the “hERG current change (%, negative = inhibition) at 10uM” value was 10.3%. Consider `CCn1c(CNC(=O)c2ccccc2Br)nnc1SCC(=O)Nc1nncs1`, for which the “hERG current change (%, negative = inhibition) at 10uM” value is reported as 3.2%. For `CCCCNC(=O)COC(=O)c1ccccc1F`, the “hERG current change (%, negative = inhibition) at 10uM” value is 0.511%. `N#C/C(=C(/O)c1cc2ccccc2o1)c1nc2ccccc2s1`: the “hERG current change (%, negative = inhibition) at 10uM” value was 8.03%. Take `CC1CCCN(Cc2cnc(Cl)s2)C1` (stereo not drawn): the “hERG current change (%, negative = inhibition) at 10uM” value turned out to be 13%. In the case of `O=C(N=C1c2ccccc2CN1c1ccc(F)c(F)c1)c1cccnc1`, the “hERG current change (%, negative = inhibition) at 10uM” value was -7.57%.

With `Br.N=c1n(CC(=O)c2cccc([N+](=O)[O-])c2)c2ccccc2n1Cc1ccccc1`, the “hERG current change (%, negative = inhibition) at 10uM” value is listed as -17.9%. As for `CCCN1CCC(NC(=O)Nc2cccc3ccccc23)CC1`, the “hERG current change (%, negative = inhibition) at 10uM” value was -12.1%. Next, `COc1ccc(-c2cc(CC3(C(=O)O)CCN(C(=O)OC(C)(C)C)CC3)on2)c(OC)c1`: -1.54%. For `CCOC(=O)c1cc(C)sc1NC(=O)CCC(=O)O`, the “hERG current change (%, negative = inhibition) at 10uM” value is -3.59%. Then `CC(C(=O)O)N1C(=O)C2C3CC(C2C1=O)C1C(c2ccccc2)c2sc(=O)[nH]c2SC31` (stereo not drawn), with 13.8%. Next, `CC(C)(C)c1ccc(C(=O)C2CCCN(Cc3ccon3)C2)cc1` (stereo not drawn): -1.45%. Then `COc1cc(/C=N/NC(=O)C2CC(=O)N(c3ccc(C)cc3)C2)cc(OC)c1OC` (stereo not drawn), with 16.2%; and `O=C(Nc1cccc2ccccc12)c1onc2c1CCCC2`, with 15.9%; and `Cc1ccccc1COC(=O)c1nn(-c2ccccc2)nc1N`, with 5.29%. On to `O=C(c1ccccc1Cl)N1CCNCC1`, for which the “hERG current change (%, negative = inhibition) at 10uM” value worked out at 13.2%. Then `NCCNc1ccc(C(=O)N2c3ccccc3Sc3ccccc32)cc1[N+](=O)[O-]`, with 10.4%; and `Cc1cnc(NC(=O)c2cccs2)s1`, with 13.2%. As for `CCOc1ccc(C2C(C(=O)c3ccco3)=C(O)C(=O)N2CCCn2ccnc2)cc1OCC` (stereo not drawn), the “hERG current change (%, negative = inhibition) at 10uM” value came to 1.11%. Next, `Fc1ccc(C2CC(c3ccccc3)n3ncnc3N2)cc1` (stereo not drawn): -29.3%; `COCCOC(=O)C1=C(C)NC(=O)N(C(C)=O)C1c1ccc(Cl)cc1` (stereo not drawn): 1.94%; `COc1ccccc1-n1cnnc1SC(C)C(=O)Nc1ccc(NC(C)=O)cc1` (stereo not drawn): 1.22%. Take `Cc1cccc(OCC(=O)Nc2cccc(O)c2)c1`: the “hERG current change (%, negative = inhibition) at 10uM” value is recorded as -1.74%.

For `CCC(=O)NNc1nc2c(Cl)cccc2s1`, the “hERG current change (%, negative = inhibition) at 10uM” value amounted to 40.4%. In the case of `O=S(=O)(c1ccc(F)cc1)N1CCN(S(=O)(=O)c2cc(F)ccc2F)CC1`, the “hERG current change (%, negative = inhibition) at 10uM” value is 18%. As to `CCCc1nc2oc3ccccc3c(=O)c2c(=O)n1-c1ccc(C)cc1`, the “hERG current change (%, negative = inhibition) at 10uM” value is -3.65%. Then `CN(CC(=O)Nc1ccccc1Cl)C(=O)COC(=O)CN1C(=O)NC2(CCCC2)C1=O`, with 9.31%; and `CCN(CC)c1nc2ccccc2[nH]1.Cl`, with -6.44%; and `COc1ccc(Cl)cc1C(=O)NNC(=O)c1n[nH]c2ccccc12`, with 0.44%.

Take `COc1ccc(OC)c(C(=O)c2oc3ccccc3c2NC(C)=O)c1`: the “hERG current change (%, negative = inhibition) at 10uM” value is -20%.

Take `COc1cc(/C=C2/SC(=S)N(Cc3ccccc3)C2=O)cc(Cl)c1O`: the “hERG current change (%, negative = inhibition) at 10uM” value is recorded as 23.5%. Then `COCc1ccc(C(=O)OC(C)C(=O)Nc2c(C)n(C)n(-c3ccccc3)c2=O)cc1` (stereo not drawn), with 9.09%; and `Clc1cccc(CSc2nccn2-c2ccccc2)c1`, with -8.01%; and `CCN1C(=O)/C(=C\N(C)C)S/C1=N\S(=O)(=O)c1ccccc1`, with -2.12%. Next, `COc1ccc(-c2noc(CN(C)C(=O)c3ccoc3C)n2)cc1OC`: -0.132%; `CCCSc1nnc2[nH]c(=O)cc(N)n12`: 13.6%; `Cc1ccc(S(=O)(=O)NN2C(=O)/C(=C/c3cccs3)SC2=S)cc1`: -22%. On to `COc1cccc(CN2CCC(n3nccc3NC(=O)CCOc3ccccc3)CC2)c1`, for which the “hERG current change (%, negative = inhibition) at 10uM” value was -62%. As to `Cc1cccc2cc(-c3nc4ccc(C(=O)O)cc4[nH]3)c(=O)oc12`, the “hERG current change (%, negative = inhibition) at 10uM” value came to 13.2%. On to `O=C(O)C1CCC(c2ccc(-c3ccccc3)cc2)CC1` (stereo not drawn), for which the “hERG current change (%, negative = inhibition) at 10uM” value was -28.2%. Regarding `CC12CC3(C)CC(C)(C1)CC(C(=O)NC(=S)N1CCOCC1)(C2)C3`, the “hERG current change (%, negative = inhibition) at 10uM” value is given as -9.18%. Take `CCCCn1c(SCC(=O)c2ccc3c(c2)OCCO3)nnc1-c1ccco1`: the “hERG current change (%, negative = inhibition) at 10uM” value is -14%.

For `CCOC(=O)Cn1c(C(=O)OCC)cc2sccc21`, the “hERG current change (%, negative = inhibition) at 10uM” value was determined as 15%. Next, `O=C(CCCCCN1C(=O)c2cccc3cccc(c23)C1=O)NCCCO`: -1.71%; `Cc1cc(C(=O)NNCc2ccccc2)no1`: -3.87%; `Cc1ccc(S(=O)(=O)N2CCCCC2)cc1NC(=O)CNc1ccc(C(F)(F)F)cc1`: 3.45%. On to `Cc1ccc(C)c(NC(=O)CSc2nnc(CNC(=O)c3cccs3)o2)c1`, for which the “hERG current change (%, negative = inhibition) at 10uM” value is recorded as -9.36%. Regarding `CN(C(=O)CC1C(=O)NCCN1Cc1ccc(F)c(F)c1)C1CCOCC1` (stereo not drawn), the “hERG current change (%, negative = inhibition) at 10uM” value came out at 8.25%. For the compound `O=C(CCC(=O)N1CCN(Cc2ccccc2)CC1)Nc1nnc(C2CCCCC2)s1`, the “hERG current change (%, negative = inhibition) at 10uM” value was -9.04%.

For the compound `CSc1ccccc1OCc1cc(C(=O)NCCn2ccnc2C)no1`, the “hERG current change (%, negative = inhibition) at 10uM” value was -31.3%.

Take `CCOC(=O)C1=C(c2ccccc2)NC(=O)NC1c1ccc(O)c(OCC)c1` (stereo not drawn): the “hERG current change (%, negative = inhibition) at 10uM” value is listed as 15.6%. For `CN(C)c1ccc(/C=C/C(=O)c2ccc(C(C)(C)C)cc2)cc1[N+](=O)[O-]`, the “hERG current change (%, negative = inhibition) at 10uM” value was 2.55%. Take `O=C(O)[C@@H]1CCCN1S(=O)(=O)c1cccc2cccnc12`: the “hERG current change (%, negative = inhibition) at 10uM” value is given as -1.77%.
